Screen size: about 310,000 compounds; about 2,200 (0.71%) showed an effect of 50% or more. The effect is printed as a negative number. The list shows a part of the results.
Molecular target: human ether-à-go-go-related gene (hERG) potassium channel (human, UniProt Q12809)
Assay: primary screen, population patch clamp on CHO cells stably expressing hERG

human ether-à-go-go-related gene (hERG) potassium channel, sequence (Q12809 whole entry, looked up): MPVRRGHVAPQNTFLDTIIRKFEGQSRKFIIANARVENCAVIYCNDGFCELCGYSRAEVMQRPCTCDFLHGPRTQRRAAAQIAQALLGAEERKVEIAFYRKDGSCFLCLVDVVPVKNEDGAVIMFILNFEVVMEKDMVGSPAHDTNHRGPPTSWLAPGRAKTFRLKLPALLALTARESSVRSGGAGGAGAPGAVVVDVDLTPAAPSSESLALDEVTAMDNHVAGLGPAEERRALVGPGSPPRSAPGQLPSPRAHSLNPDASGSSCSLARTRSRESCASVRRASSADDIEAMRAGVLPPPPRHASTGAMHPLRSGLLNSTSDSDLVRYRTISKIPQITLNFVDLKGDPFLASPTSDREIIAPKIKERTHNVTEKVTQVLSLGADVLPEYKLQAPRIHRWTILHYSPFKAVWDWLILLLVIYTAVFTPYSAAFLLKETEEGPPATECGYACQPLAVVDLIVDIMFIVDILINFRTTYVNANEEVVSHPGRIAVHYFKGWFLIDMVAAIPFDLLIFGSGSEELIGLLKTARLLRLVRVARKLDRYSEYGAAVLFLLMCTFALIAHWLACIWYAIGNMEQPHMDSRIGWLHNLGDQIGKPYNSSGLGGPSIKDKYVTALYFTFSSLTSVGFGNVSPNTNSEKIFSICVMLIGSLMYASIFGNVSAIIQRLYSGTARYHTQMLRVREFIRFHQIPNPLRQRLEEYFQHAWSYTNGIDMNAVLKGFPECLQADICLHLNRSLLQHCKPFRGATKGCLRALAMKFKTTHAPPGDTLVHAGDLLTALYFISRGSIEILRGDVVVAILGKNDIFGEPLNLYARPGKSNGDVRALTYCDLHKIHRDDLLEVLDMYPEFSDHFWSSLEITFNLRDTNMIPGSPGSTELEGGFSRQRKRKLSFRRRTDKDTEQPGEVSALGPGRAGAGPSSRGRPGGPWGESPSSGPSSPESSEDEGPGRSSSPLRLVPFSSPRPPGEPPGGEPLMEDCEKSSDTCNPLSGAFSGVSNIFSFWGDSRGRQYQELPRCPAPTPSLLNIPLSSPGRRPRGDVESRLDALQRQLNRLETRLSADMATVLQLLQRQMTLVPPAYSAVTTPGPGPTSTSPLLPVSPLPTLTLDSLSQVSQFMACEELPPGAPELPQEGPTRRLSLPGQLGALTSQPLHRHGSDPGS

SMILES	hERG current change (%, negative = inhibition) at 1uM
CN1CCN(C(c2cccs2)c2nnnn2Cc2ccc(F)cc2)CC1.Cl (centres unmarked)	9.5%
Cc1cc(C)nc(SCc2cccc(C(=O)O)c2)n1	0.978%
Cc1ccccc1OCC(=O)NNC(=O)c1cc(S(=O)(=O)N(C)C)ccc1N1CCCC1	4.06%
C=CCNc1nc(C(=O)OCC(=O)NCc2cccc(Cl)c2)cs1	3.5%
O=C(NCCS(=O)(=O)N1CCN(c2ccccc2)CC1)c1ccc(Br)o1	9.2%
CCc1nnc(NC(=O)C2CCCN(S(=O)(=O)c3ccc(OC)cc3)C2)s1 (centres unmarked)	11.3%
CCCNC(=O)CSc1nnc(-c2ccco2)n1C	4.54%
O=C(NNCc1ccc(O)cc1)c1ccccc1Cl	13.6%
O=C(NCc1ccco1)c1cc2c(s1)CCCCC2	-7.05%
CC(=O)c1ccc(NC(=O)CSCC(=O)Nc2ccc3ccccc3c2)cc1	12%
Cn1c(=O)c2c(SCC(N)=O)nc(CC(C)(C)C)nc2n(C)c1=O	4.58%
N#C/C(=C\c1ccc(OCc2cccc(C(=O)O)c2)cc1)C(=O)NCc1ccco1	10.6%
O/N=C/c1cn(-c2ccccc2)nn1	3.07%
Cc1ccc(C(=O)Oc2ccc(/C=C3\C(=N)N4N=C(N5CCOCC5)SC4=NC3=O)cc2)cc1	19%
CCCCc1nnc(NC(=O)CC(=O)Nc2ccccc2C(=O)O)s1	6.83%
C=C1CCN([C@@H](C)C(=O)OCc2cccc(C)c2)S(=O)(=O)c2ccccc21	13.4%
Cc1cc(C)c(C#N)c(SCC(=O)Nc2ccc(S(=O)(=O)Nc3onc(C)c3C)cc2)n1	7.18%
CCOC(=O)c1sc(Nc2nc3c(OC)cccc3s2)nc1C	4.72%
CCCN(Cc1ccccc1)C(=S)Nc1ccc(F)cc1	9.22%
Cc1cc(C)c2nc(SCC(=O)Nc3cc(C)on3)c(C)cc2c1	16%
CCC(NS(=O)(=O)c1c(C)[nH]c(=O)[nH]c1=O)C12CC3CC(CC(C3)C1)C2 (centres unmarked)	-0.141%
CCOc1c(P(=S)(N(C)C)N(C)C)c(C)nn1-c1ccccc1	15.7%

SMILES	hERG current change (%, negative = inhibition) at 1uM
C=CCn1c(SCc2ccc(Cl)cc2)nc2c1c(=O)[nH]c(=O)n2C	11.7%
O=C(Nc1ccc2c(c1)OCO2)c1cnccn1	8.63%
Cc1cc(C)cc(NS(=O)(=O)c2ccc3[nH]cc(C(=O)N4CCc5ccccc54)c(=O)c3c2)c1	11.6%
N#CC(C(=O)c1ccc(S(=O)(=O)N2CCCCCC2)cc1)c1nc2ccccc2[nH]1 (centres unmarked)	7.36%
COc1ccc(N2C(=O)CSC23C(=O)N2CCCc4cccc3c42)cc1 (centres unmarked)	11.5%
COc1ccc(CNC(=O)c2c(C)cc(=O)oc2C)cc1OC	-5.28%
Cc1ccc(F)c(C2=CC(=O)C[C@H](c3ccc(F)cc3)C2)c1	2.4%
C=CCn1c(C(O)c2ccccc2)nc2ccccc21 (centres unmarked)	12.8%
COCC(C)n1c(SCc2nc3ccccc3c(=O)[nH]2)nc2ccccc2c1=O (centres unmarked)	-3.8%
O=C(NCCCNC(=O)c1ccco1)c1cccc(F)c1	2.55%
CCOC(=O)c1cnn(CCOC(=O)c2ccccc2)c1NC(=O)c1ccccc1	1.31%
CC(C)(C)OC(=O)[C@H](Cc1ccccc1)NC(=O)c1nc[nH]c1C(=O)NCc1ccccc1	13.2%
CCn1c(Cn2nnc(-c3ccccc3)n2)nnc1SCC(=O)Nc1cccc(C(C)=O)c1	2.68%
O=C(NC1CC1)C1CCN(C(=O)c2ccccc2Cl)CC1	13%
C/C(=N\O)C(C)/[N+]([O-])=C/c1nc(C)c(C)n1O (centres unmarked)	18.1%
CC1(C(=O)N2CCN(C(=O)c3ccco3)CC2)CC1(Br)Br (centres unmarked)	9.48%
c1ccc(-c2oc3ncnc(NCCCN4CCOCC4)c3c2-c2ccccc2)cc1	0.244%
O=C(Nc1ccc(N2CCN(C(=O)c3ccccc3)CC2)cc1)c1ccc(Br)o1	-6.32%
C/C(=C\c1ccccc1)C(=O)Nc1cc(C)on1	11.1%
CCC1CCCCN1CCCNC(=O)c1cc2c(=O)oc3ccc(C)cc3c2s1 (centres unmarked)	-32.9%
CCN(Cc1ccccc1)c1ccc(/C=C(\C#N)c2ccccn2)cc1	5.5%
COc1ccc(-c2nn(CCC#N)cc2C(=O)Nc2ccccc2Br)cc1	16.4%
